# Data: article PMC4336329 (PLoS ONE, 2015)
# About 14,000 (4.5%) of roughly 310,000 compounds showed an effect of 50% or more. The effect is printed as a negative number. Some of the results follow.
# Biological target: human ether-à-go-go-related gene (hERG) potassium channel (human, UniProt Q12809)
# Experiment: primary screen, population patch clamp on CHO cells stably expressing hERG
# 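Further: peak tail current of the secondary pulse compared with the same well before compound.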
# Chain of human ether-à-go-go-related gene (hERG) potassium channel (Q12809 whole entry, looked up): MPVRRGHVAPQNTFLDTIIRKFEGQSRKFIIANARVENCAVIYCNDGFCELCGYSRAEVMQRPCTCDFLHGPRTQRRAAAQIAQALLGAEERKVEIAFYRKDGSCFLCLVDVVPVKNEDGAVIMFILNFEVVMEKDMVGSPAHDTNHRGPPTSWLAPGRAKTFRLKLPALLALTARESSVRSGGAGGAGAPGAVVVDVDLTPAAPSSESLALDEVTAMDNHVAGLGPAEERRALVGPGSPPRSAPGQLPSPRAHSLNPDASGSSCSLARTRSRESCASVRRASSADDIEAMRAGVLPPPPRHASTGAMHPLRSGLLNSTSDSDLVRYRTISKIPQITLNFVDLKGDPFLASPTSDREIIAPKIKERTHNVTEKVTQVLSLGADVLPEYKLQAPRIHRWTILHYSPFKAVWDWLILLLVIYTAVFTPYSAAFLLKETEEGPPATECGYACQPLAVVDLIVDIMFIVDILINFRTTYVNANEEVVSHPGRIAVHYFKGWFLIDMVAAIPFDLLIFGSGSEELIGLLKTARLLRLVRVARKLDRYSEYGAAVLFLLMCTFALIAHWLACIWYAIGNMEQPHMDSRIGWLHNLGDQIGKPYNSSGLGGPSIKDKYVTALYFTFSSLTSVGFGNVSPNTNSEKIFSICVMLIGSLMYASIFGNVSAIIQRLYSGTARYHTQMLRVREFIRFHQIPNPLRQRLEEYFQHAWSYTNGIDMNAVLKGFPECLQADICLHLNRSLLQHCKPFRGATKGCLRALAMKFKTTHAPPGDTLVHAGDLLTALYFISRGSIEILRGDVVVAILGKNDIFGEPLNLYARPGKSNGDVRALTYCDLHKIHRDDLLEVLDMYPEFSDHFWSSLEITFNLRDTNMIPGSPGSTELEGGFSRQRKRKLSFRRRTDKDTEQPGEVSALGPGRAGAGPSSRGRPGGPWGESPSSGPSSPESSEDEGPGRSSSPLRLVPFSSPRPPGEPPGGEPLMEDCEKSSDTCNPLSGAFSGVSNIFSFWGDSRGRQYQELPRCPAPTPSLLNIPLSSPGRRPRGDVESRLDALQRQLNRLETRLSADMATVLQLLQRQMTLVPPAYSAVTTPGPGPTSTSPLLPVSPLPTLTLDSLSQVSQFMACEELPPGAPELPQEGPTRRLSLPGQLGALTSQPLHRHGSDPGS
row,SMILES,"hERG current change (%, negative = inhibition) at 10uM [%]"
1,COC(=O)C[C@H]1c2cc(F)ccc2S(=O)(=O)N1Cc1ccccc1OC,1.77
2,Cc1coc2cc3oc(=O)c(CC(=O)N4C[C@H]5C[C@@H](C4)c4cccc(=O)n4C5)c(C)c3cc12,-41.5
3,C=CCn1c(-c2ccccc2)nc(=S)c2c1CCCC2,11.6
4,CCCNC(=O)CCn1c(-c2ccc(C)cc2)cc(C(=O)OCC)c1C,-6.08
5,COCCn1c(SCC(=O)NCc2ccc3c(c2)OCO3)nnc1C(C)C,17.4
6,O=C(CSc1nnc(-c2cccc(S(=O)(=O)N3CCCCC3)c2)o1)NCCC1=CCCCC1,0.45
7,Cc1cc(NC(=O)COc2ccc3oc4ccccc4c3c2)no1,-5.66
8,O=C(Nc1cccc(Cl)c1)c1ccc(F)c(S(=O)(=O)NCc2ccc3c(c2)OCO3)c1,-15.1
9,O=C(OCc1cc(Cl)ccc1OC(F)F)c1ccc([N+](=O)[O-])o1,5.86
10,O=C(c1cc2nc(C3CC3)cc(C(F)F)n2n1)N1CCOCC1,15.2
11,O=C(c1ccc(F)cc1)C1CCN(C(=O)c2c(F)cccc2F)CC1,-5.01
12,Cc1cccc(OCC(=O)NC(=S)NNC(=O)c2ccncc2)c1,16.8
13,O=C(CN(Cc1cccs1)S(=O)(=O)c1ccc(S(=O)(=O)NC2CCCCC2)cc1)Nc1ccccc1,-10.5
14,Cc1ccccc1-n1nc(-c2ccc(N)cc2)cc1N,-9.97
15,Cc1cccc(NS(=O)(=O)c2ccc3c(c2)oc(=O)n3C)c1C,6.2
16,CCc1ccccc1NC(=O)NCCN1CCCCC1,0.58
17,Cc1ccc2c(c1)c(N=O)c(O)n2Cc1ccc(Cl)cc1,-14.4
18,CC(=O)c1cccc(NC(=O)/C(=C/c2ccco2)NC(=O)c2ccco2)c1,-18.6
19,CCc1ccc(N(CC(=O)NC(C)C)C(=O)CCC(=O)Nc2nccs2)cc1,13.4
20,CCc1cc(=O)oc2cc(OC(C)C(=O)O)c(Cl)cc12 (stereo not drawn),15.4
21,COCC(=O)Nc1ccc(Br)cc1,-2.7
22,Cc1ccccc1NS(=O)(=O)c1ccc(OCCNS(C)(=O)=O)cc1,-4.01
23,O=C(OCC(=O)N1CCCC1=O)c1cc(Cl)ccc1O,-17.4
24,CN1C2CCC1CC(NS(=O)(=O)c1cccc(C(F)(F)F)c1)C2 (stereo not drawn),12.3
